Reference: publication PMC9911399, “Two distinct binding modes provide the RNA-binding protein RbFox with extraordinary sequence specificity”
Changes are numbered by the printed parent chain; changes in the protein carry UniProt numbers. The list shows a part of the results.

T1: RBFOX1 RRM (Homo sapiens, UniProt Q9NWB1 109-208)
T1 sequence: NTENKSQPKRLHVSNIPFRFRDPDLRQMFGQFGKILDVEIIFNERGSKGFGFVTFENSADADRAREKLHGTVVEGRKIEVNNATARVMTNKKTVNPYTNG

B1: GCGGGUC (DNA:RNA)
RNA: GGGAGACCGGAAUUCAGAUUGUCCGCGGGUCUUAAAUCCCGUCGUAGCCACCA
DNA 1: CAATCTGAATTCCGGTCTCCC
DNA 2: TGGTGGCTACGACGGGATT
B2: UACAAGC (DNA:RNA)
RNA: B1 RNA with G25U, C26A, G27C, G28A, G29A, U30G
DNA 1: CAATCTGAATTCCGGTCTCCC
DNA 2: TGGTGGCTACGACGGGATT
B3: CCAGGCA (DNA:RNA)
RNA: B1 RNA with G25C, G27A, U30C, C31A
DNA 1: CAATCTGAATTCCGGTCTCCC
DNA 2: TGGTGGCTACGACGGGATT
B4: GCGCCAU (DNA:RNA)
RNA: B1 RNA with G28C, G29C, U30A, C31U
DNA 1: CAATCTGAATTCCGGTCTCCC
DNA 2: TGGTGGCTACGACGGGATT
B5: UCUCAAU (DNA:RNA)
RNA: B1 RNA with G25U, G27U, G28C, G29A, U30A, C31U
DNA 1: CAATCTGAATTCCGGTCTCCC
DNA 2: TGGTGGCTACGACGGGATT
B6: CUGCUAG (DNA:RNA)
RNA: B1 RNA with G25C, C26U, G28C, G29U, U30A, C31G
DNA 1: CAATCTGAATTCCGGTCTCCC
DNA 2: TGGTGGCTACGACGGGATT
B7: AGGUGGU (DNA:RNA)
RNA: B1 RNA with G25A, C26G, G28U, U30G, C31U
DNA 1: CAATCTGAATTCCGGTCTCCC
DNA 2: TGGTGGCTACGACGGGATT
B8: AUGGCAA (DNA:RNA)
RNA: B1 RNA with G25A, C26U, G29C, U30A, C31A
DNA 1: CAATCTGAATTCCGGTCTCCC
DNA 2: TGGTGGCTACGACGGGATT
B9: GCCAUAG (DNA:RNA)
RNA: B1 RNA with G27C, G28A, G29U, U30A, C31G
DNA 1: CAATCTGAATTCCGGTCTCCC
DNA 2: TGGTGGCTACGACGGGATT

Each binder was assayed against T1, RBFOX1 RRM (assay: EMSA; HiTS-Eq, 1 nM pool, 10 min; buffer printed only for the single-RNA assays: 10 mM Tris pH 7.5, 150 mM NaCl, 3.4 mM EDTA, 0.001% NP-40, 30 C). Conditions: tags: His6 N-terminal (pET28a); label: 5' 32P.
Outline: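 Purified RbFox RRM (wild type or mutant) was equilibrated for 10 min in 50 µL with 1 nM of a 5′-radiolabelled pool of RNA with 7 randomized nucleotides, its flanks annealed to DNA oligonucleotides, across increasing protein concentrations. Free RNA was separated by 8% native PAGE, excised, reverse-transcribed, PCR-barcoded and sequenced on an Illumina HiSeq 2500. Relative association constants came from read-count changes of each variant against the control reaction, normalised to the cognate motif.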
In the case of B1, the binding signal is reported as 0.0163 KA relative to UGCAUGU. For B2, the binding signal was 0.00451 KA relative to UGCAUGU. With B3 the binding signal was 0.0107 KA relative to UGCAUGU. With B4 the binding signal was 0.00645 KA relative to UGCAUGU. In the case of B5, the binding signal is reported as 0.0038 KA relative to UGCAUGU. With B6 the binding signal was 0.0317 KA relative to UGCAUGU. B7 was tested, and the binding signal was 0.0164 KA relative to UGCAUGU. B8 was tested, and the binding signal was 0.0106 KA relative to UGCAUGU. For B9, the binding signal was 0.00949 KA relative to UGCAUGU.
